# PubChem BioAssay AID1508623 (National Center for Advancing Translational Sciences (NCATS), 2021)
# About 450 (0.94%) of roughly 48,000 compounds were called active. The inconclusive results got no clear call from the source; some entries with a clear call stand among them for comparison. Calls follow the shape of the dose curve; as a rule, active = well fitted inhibition curve with a large enough effect; inconclusive = small, poorly fitted or top-dose-only effect; inactive = no such curve, though single readings can be large or run the other way. A potency beside an inconclusive call is a rough fit, not a confirmed value.
# Assay: Primary qHTS for Identification of Small Molecule Inhibitors of Huntingtin Promoter Activity; also: nearly all actives have a fitted effect of over 50% in size
# Details: HEK293 HTT promoter firefly luciferase reporter (activity 0% = vehicle and -100% = no light), 24 h; activity change, negative = inhibition: at 57.5 µM (top of the series)
# Description: Assay Provider: Russell L. Margolis M.D.
# Department Neurology, Johns Hopkins University School of Medicine, Baltimore, MD
# Huntington's Disease (HD) is a neurodegenerative disorder caused by a CAG repeat expansion in exon 1 of huntingtin (HTT). While there are currently no disease-modifying treatments for HD, recent efforts have focused on development of nucleotide-based therapeutics to lower HTT expression. As an alternative to siRNA or oligonucleotide methods, we hypothesized that suppression of HTT expression might be accomplished by small molecules that either (1) directly decrease HTT expression by suppressing HTT promoter activity or (2) indirectly decrease HTT expression by increasing the promoter activity of HTT-AS, the gene antisense to HTT that appears to inhibit expression of HTT.
# We developed and employed a high throughput screen for modifiers of HTT and HTT-AS promoter activity using luminescent reporter HEK293 cells; of the 52,041 compounds tested, we identified 898 replicable hits. We used a rigorous stepwise approach to assess compound toxicity and the capacity of the compounds to specifically lower huntingtin protein in 5 different cell lines, including HEK293 cells, HD lymphoblastoid cells, mouse primary neurons, HD iPSCs differentiated into cortical-like neurons, and HD hESCs. We found no compounds which were able to lower huntingtin without lowering cell viability in all assays, though the potential efficacy of a few compounds at non-toxic doses could not be excluded.
# SEQUENCE No. (1, 2, 3, etc.); […] (e.g., Cells, Incubation, Reagent, etc.); VALUE and DESCRIPTION.
# 1; Reagent; 4 uL; 2,500 Hek293 luciferase reporter cells per wells
# 3; Compound; 23 nL; Control inhibitor / compound library
# 5; Reagent; 2.5 uL; Firefly Luc reagent; Dual-Glo Luciferase Reporter Assay System (Promega)
# 6; Time; 10 min; room temperature incubation
# 7; Detection; Luminescence; FLuc
# NOTES (numbers refer to sequence above)
# 1; High-throughput screening, measuring luminescence from a Hek293 luciferase reporter, was performed in 1,536 well white-walled tissue-culture treated plates. 2,500 cells were plated in 4 µL of Opti-MEM per well using a Multidrop Combi Reagent Dispenser (ThermoFisher).
# 2; Assay plates were cultured for 24 hours.
# 3; Control inhibitor (PTC124; final concentration of 50 uM) and compound library (at final concentrations of 460 nM - 57.5 uM) were added to the assay plate using the Kalypsis Pintool Robotic System equipped with 1536 pinheads.
# 4; Cells were then incubated for 24 hours at 37 degrees C prior to luminescence measurements.
# 5; In all cases, luminescence was measured using the Dual-Glo Luciferase Reporter Assay System (Promega) following the manufacturer's instructions.
# 6; Room temperature incubation.
# 7; Luminescence signal was obtained using the PerkinElmer ViewLux plate reader. Results were normalized to vehicle control (0% activity) and zero RLU (-100% activity).
# Potency is read from the fitted curve at half-maximal effect; tags tell the direction and shape of the fitted curve.
Structure (SMILES),"activity change, negative = inhibition",Potency
C[C@]1(c2nc3c(C(N)=O)cccc3[nH]2)CCCN1,inactive: -8.21%,
Cc1ccc(CNC(=O)CN2C(=O)COc3ccc(S(=O)(=O)N4CCC(C)CC4)cc32)cc1,,"inconclusive: 14.1 µM [inhibitor, partial curve, poor fit]"
CSc1cccc(NC(=O)c2ccc3c(c2)CCCN3S(C)(=O)=O)c1,inactive: -27.8%,
CCCCCCn1c(/C=C/c2ccccc2)nc2ccccc21,inactive: 32.7%,
CCN(CCCNC(=O)c1ccc(Sc2ccc(Cl)cc2)c(NC(C)=O)c1)c1cccc(C)c1,,"inconclusive: 39.8 µM [inhibitor, single point]"
CCc1nn(CCCC(=O)NCc2ccc(OC)c(OC)c2)c(=O)c2cc3occc3n12,,"inconclusive: 22.4 µM [inhibitor, single point]"
c1ccc(N2CCN(c3ncnc4c3nc3n4CCCCC3)CC2)cc1,,"inconclusive: 14.1 µM [inhibitor, partial curve, poor fit]"
CN1c2ccccc2-c2nc(SCC(=O)Nc3ccccc3)ncc2S1(=O)=O,,"inconclusive: 17.8 µM [inhibitor, partial curve, poor fit]"
CCN(CC)c1ccc(-c2nc(-c3ccccn3)no2)cc1[N+](=O)[O-],,"inconclusive: 0.0891 µM [inhibitor, full curve, poor fit]"
Cc1ccc(-n2ncc3c(NCc4ccccc4)ncnc32)cc1C,inactive: 11.9%,
O=C(CSc1oc(-c2ccco2)nc1S(=O)(=O)c1ccc(Br)cc1)c1ccc(Cl)cc1,,"inconclusive: 25.1 µM [inhibitor, partial curve, poor fit]"
CC1=C(C(=O)Nc2cccnc2)C(c2ccc(F)cc2)n2nc(SCc3ccccc3)nc2N1 (configuration not stated),inactive: -9.49%,
COc1cc(OC)c(NC(=O)CSc2nc3ccncc3[nH]2)cc1Cl,,"inconclusive: 17.8 µM [inhibitor, partial curve, poor fit]"
CCOc1ccc(Nc2c(S(=O)(=O)c3ccccc3)cnc3ccc(CC)cc23)cc1,,"inconclusive: 31.6 µM [inhibitor, partial curve, poor fit]"
CN1Cc2cc(C(=O)N3CCC(C4CCNCC4)CC3)ccc2N[C@@H](CC(=O)O)C1=O,inactive: 1.05%,
CCOC(=O)C1=C(CNCc2ccc(Cl)cc2)NC(=O)NC1c1ccccc1 (configuration not stated),,"inconclusive: 39.8 µM [inhibitor, single point]"
CC(=O)N1c2ccccc2CC1C(=O)N1CCN(c2ccccc2F)CC1 (configuration not stated),inactive: -23.1%,
COc1cc(NC(=O)Cn2cc(S(=O)(=O)N3CCC(C)CC3)c3ccccc3c2=O)cc(OC)c1OC,,"inconclusive: 20 µM [inhibitor, single point]"
CCOc1ccc(Nc2ncnc3onc(-c4ccc(Cl)cc4)c23)cc1,,"inconclusive: 25.1 µM [inhibitor, partial curve, poor fit]"

Structure (SMILES),"activity change, negative = inhibition",Potency
CCOC(=O)c1cc(-c2ccc(OC)cc2)n(CCC(=O)NCCc2ccc(OCC)c(OCC)c2)c1C,,"inconclusive: 22.4 µM [inhibitor, single point]"
Cc1ccc(OCC(=O)Nc2ccc(C(=O)OCc3cc(=O)n4ccsc4n3)cc2)cc1C,,"inconclusive: 39.8 µM [inhibitor, partial curve, poor fit]"
COc1cc([N+](=O)[O-])ccc1NC(=O)N1CCC2(CC1)Nc1cc(F)ccc1-n1cccc12,,"inconclusive: 15.8 µM [inhibitor, partial curve, poor fit]"
Cc1ccccc1Nc1nnc(-c2ccc(C)c(S(=O)(=O)NCC3CCCO3)c2)c2ccccc12 (configuration not stated),,"inconclusive: 12.6 µM [inhibitor, partial curve, poor fit]"
CN(C)c1ccc(CNC(=O)C2CCN(C(=O)c3ccc(-n4ccc5ccccc54)s3)CC2)cc1,,"inconclusive: 39.8 µM [inhibitor, single point]"
CCC1=C(c2ccc(C)cc2)S(=O)(=O)N=C1N1CCC(C(=O)NCCc2cccc(OC)c2)CC1,,"inconclusive: 35.5 µM [inhibitor, single point]"
COc1ccc(OCCCn2c(C)nc3cc(C)c(C)cc32)cc1,,"inconclusive: 39.8 µM [inhibitor, single point]"
Cn1nnnc1SCCCNCc1cc(Cl)ccc1OCc1ccccc1,,"inconclusive: 31.6 µM [inhibitor, single point]"
CCc1ccc(NC(=O)C2CCCN2S(=O)(=O)c2cccc3nsnc23)cc1 (configuration not stated),,"inconclusive: 35.5 µM [inhibitor, partial curve, poor fit]"
CC(C)c1ccc(NC(=O)c2cc(S(=O)(=O)NCCC3=CCCCC3)ccc2F)cc1,,"inconclusive: 25.1 µM [inhibitor, partial curve]"
COc1ccc(NC(=O)Cc2ccc(NC(=O)N3CCCCc4ccccc43)cc2)c(OC)c1,,"inconclusive: 31.6 µM [inhibitor, partial curve, poor fit]"
COc1ccc(C(=O)Nc2ccc3c(c2)N(C)C(=O)c2ccccc2S3)cc1OC,,"inconclusive: 14.1 µM [inhibitor, partial curve, poor fit]"
CN(Cc1ccccc1)C(=O)c1ccc2c(c1)N(Cc1ccc(Cl)cc1)C(=O)c1ccccc1S2=O (configuration not stated),,"inconclusive: 39.8 µM [inhibitor, partial curve, poor fit]"
CCCOc1ccccc1C(=O)Nc1nc2c(s1)CCCC2,inactive: -26.3%,
CCc1ccccc1N1CC(c2nc3ccccc3n2CCC2CCCCC2)CC1=O (configuration not stated),,"inconclusive: 35.5 µM [inhibitor, partial curve, poor fit]"
Cc1nnc(N2CCC(C(=O)NCc3cccc(Cl)c3)CC2)c2nn(-c3ccccc3)c(C)c12,,"inconclusive: 35.5 µM [inhibitor, partial curve, poor fit]"
CC(C)c1ccc(NC(=O)CSC2=Nc3ccccc3C3=NC(CC(=O)NCc4ccco4)C(=O)N23)cc1 (configuration not stated),,"inconclusive: 39.8 µM [inhibitor, single point]"
COc1cc(OC)c(NC(=O)C(C)n2nc(-c3ccc(C)c(C)c3)ccc2=O)cc1Cl (configuration not stated),,"inconclusive: 20 µM [inhibitor, partial curve]"
